Results on 24 compounds are retold here after the supplement of paper PMC4604168 (melanoma cell lines).

SMILES strings stand for the structures. The list shows a part of the results. Many values rest on one well or one pass, so single values are uncertain.
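Note: cells treated in 1,536-well plates, then fixed and DAPI-stained, with nuclei counted from automated high-throughput microscope images.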

The subject of the assay is COLO829. The experiment in a line: cell count relative to DMSO control; melanoma cells; higher = more viable cells. The conditions noted are these: library dose: standard library concentration; 72 h.
As for `Nc1ccn([C@@H]2O[C@H](CO)[C@@H](O)C2(F)F)c(=O)n1` [gemcitabine] + CC1(C)NC(=O)N(c2ccc([N+](=O)[O-])c(C(F)(F)F)c2)C1=O [nilutamide] (first compound 0.002 µM, partner dose 5 µM), the cell count was 56.1%. The same measure for `CO[C@H]1C[C@@H]2CC[C@@H](C)[C@@](O)(O2)C(=O)C(=O)N2CCCC[C@H]2C(=O)O[C@H]([C@H](C)C[C@@H]2CC[C@@H](OCCO)[C@H](OC)C2)CC(=O)[C@H](C)/C=C(\C)[C@@H](O)[C@@H](OC)C(=O)[C@H](C)C[C@H](C)/C=C/C=C/C=C/1C` [everolimus] + C=CCNC1=C2C[C@@H](C)C[C@H](OC)[C@H](O)[C@@H](C)/C=C(\C)[C@H](OC(N)=O)[C@@H](OC)/C=C\C=C(/C)C(=O)NC(=CC1=O)C2=O [Tanespimycin] (first compound 0.1 µM, partner dose 0.01 µM): 61.9%.

`CC(=O)O[C@@]12CO[C@@H]1C[C@H](O)[C@@]1(C)C(=O)[C@H](O)C3=C(C)[C@@H](OC(=O)[C@H](O)[C@@H](NC(=O)OC(C)(C)C)c4ccccc4)C[C@@](O)([C@@H](OC(=O)c4ccccc4)[C@H]21)C3(C)C` [Docetaxel] + CC1(C)NC(=O)N(c2ccc([N+](=O)[O-])c(C(F)(F)F)c2)C1=O [nilutamide] (first compound 0.0005 µM, partner dose 5 µM) had a cell count of 48.4%. The same measure for `CC(=O)c1c(C)c2cnc(Nc3ccc(N4CCNCC4)cn3)nc2n(C2CCCC2)c1=O` [palbociclib] + NCC(=O)Nc1ccc(-n2nc(C(F)(F)F)cc2-c2ccc3c(ccc4ccccc43)c2)cc1 [OSU03012] (first compound 0.2 µM, partner dose 5 µM): 77.4%. For `Nc1nc(F)nc2c1ncn2[C@@H]1O[C@H](CO)[C@@H](O)[C@@H]1O` [fludarabine] + Nc1cccc2c1CN(C1CCC(=O)NC1=O)C2=O [lenalidomide] (first compound 1 µM, partner dose 5 µM) the value was 79.3%; for `CC(=O)O[C@@]12CO[C@@H]1C[C@H](O)[C@@]1(C)C(=O)[C@H](O)C3=C(C)[C@@H](OC(=O)[C@H](O)[C@@H](NC(=O)OC(C)(C)C)c4ccccc4)C[C@@](O)([C@@H](OC(=O)c4ccccc4)[C@H]21)C3(C)C` [Docetaxel] + Oc1cc(-c2nc(-c3ccccc3)[nH]c2-c2ccncc2)ccc1Cl [L779450] (first compound 0.0005 µM, partner dose 1 µM), 52.7%. In turn, `Nc1ncn([C@H]2C[C@H](O)[C@@H](CO)O2)c(=O)n1` [decitabine] + CC1(C)NC(=O)N(c2ccc([N+](=O)[O-])c(C(F)(F)F)c2)C1=O [nilutamide] (first compound 0.5 µM, partner dose 5 µM) yielded a cell count of 63.1%. In turn, `CC(=O)O[C@@]12CO[C@@H]1C[C@H](O)[C@@]1(C)C(=O)[C@H](O)C3=C(C)[C@@H](OC(=O)[C@H](O)[C@@H](NC(=O)OC(C)(C)C)c4ccccc4)C[C@@](O)([C@@H](OC(=O)c4ccccc4)[C@H]21)C3(C)C` [Docetaxel] + CN(NC(=O)CC(=O)NN(C)C(=S)c1ccccc1)C(=S)c1ccccc1 [STA4783] (first compound 0.0005 µM, partner dose 0.03 µM) registered a cell count of 41.2%.

The compound `CC(=O)O[C@@]12CO[C@@H]1C[C@H](O)[C@@]1(C)C(=O)[C@H](O)C3=C(C)[C@@H](OC(=O)[C@H](O)[C@@H](NC(=O)OC(C)(C)C)c4ccccc4)C[C@@](O)([C@@H](OC(=O)c4ccccc4)[C@H]21)C3(C)C` [Docetaxel] + O=C(O)[C@@H]1[O][Sb](=[O])([O][Sb]2(=[O])[O][C@H]([C@H](O)CO)[C@H](O)[C@H](C(=O)O)[O]2)[O][C@H]([C@H](O)CO)[C@@H]1O [stibogluconate] (first compound 0.0005 µM, partner dose 10 µM) displayed a cell count of 39%.

`Nc1ccn([C@@H]2O[C@H](CO)[C@@H](O)C2(F)F)c(=O)n1` [gemcitabine] + O=C(O)C(=O)Nc1sc2c(c1C(=O)O)CCNC2 [TCS401] (first compound 0.002 µM, partner dose 8.33333 µM) showed a cell count of 46.7%. For `CC(=O)O[C@@]12CO[C@@H]1C[C@H](O)[C@@]1(C)C(=O)[C@H](O)C3=C(C)[C@@H](OC(=O)[C@H](O)[C@@H](NC(=O)OC(C)(C)C)c4ccccc4)C[C@@](O)([C@@H](OC(=O)c4ccccc4)[C@H]21)C3(C)C` [Docetaxel] + C[C@]1(c2nc3c(C(N)=O)cccc3[nH]2)CCCN1 [Veliparib] (first compound 0.0005 µM, partner dose 7 µM) the value was 30.3%; for `CC(=O)c1c(C)c2cnc(Nc3ccc(N4CCNCC4)cn3)nc2n(C2CCCC2)c1=O` [palbociclib] + N#Cc1c(O)c2c(-c3ccc(-c4ccccc4O)cc3)csc2[nH]c1=O [A769662] (first compound 0.2 µM, partner dose 10 µM), 87.8%; for `Nc1ccn([C@@H]2O[C@H](CO)[C@@H](O)C2(F)F)c(=O)n1` [gemcitabine] + C=CCNC1=C2C[C@@H](C)C[C@H](OC)[C@H](O)[C@@H](C)/C=C(\C)[C@H](OC(N)=O)[C@@H](OC)/C=C\C=C(/C)C(=O)NC(=CC1=O)C2=O [Tanespimycin] (first compound 0.002 µM, partner dose 0.01 µM), 63.7%. For `CC(=O)c1c(C)c2cnc(Nc3ccc(N4CCNCC4)cn3)nc2n(C2CCCC2)c1=O` [palbociclib] + O=C(Nc1cccc(Cl)c1)Nc1ncc(CCNc2ncnc3ccsc23)s1 [SNS314] (first compound 0.2 µM, partner dose 0.004 µM) the value was 69.1%; for `CC(=O)O[C@@]12CO[C@@H]1C[C@H](O)[C@@]1(C)C(=O)[C@H](O)C3=C(C)[C@@H](OC(=O)[C@H](O)[C@@H](NC(=O)OC(C)(C)C)c4ccccc4)C[C@@](O)([C@@H](OC(=O)c4ccccc4)[C@H]21)C3(C)C` [Docetaxel] + c1cc(-c2cnn3cc(-c4ccc(OCCN5CCCCC5)cc4)cnc23)ccn1 [Dorsomorphin] (first compound 0.0005 µM, partner dose 2 µM), 42.4%; for `Nc1ncn([C@H]2C[C@H](O)[C@@H](CO)O2)c(=O)n1` [decitabine] + COC(=O)c1sccc1S(=O)(=O)Nc1ccc(Nc2ccccc2)cc1OC [GSK0660] (first compound 0.5 µM, partner dose 5 µM), 70.5%.

As for `CO[C@H]1C[C@@H]2CC[C@@H](C)[C@@](O)(O2)C(=O)C(=O)N2CCCC[C@H]2C(=O)O[C@H]([C@H](C)C[C@@H]2CC[C@@H](OCCO)[C@H](OC)C2)CC(=O)[C@H](C)/C=C(\C)[C@@H](O)[C@@H](OC)C(=O)[C@H](C)C[C@H](C)/C=C/C=C/C=C/1C` [everolimus] + Clc1ccc(Nc2nnc(Cc3ccncc3)c3ccccc23)cc1 [vatalanib] (first compound 0.1 µM, partner dose 10 µM), the cell count came to 57.7%.

In the case of `Nc1ccn([C@@H]2O[C@H](CO)[C@@H](O)C2(F)F)c(=O)n1` [gemcitabine] + OCc1c[nH]c2ccccc12 [Indole-3-carbinol] (first compound 0.002 µM, partner dose 4 µM), the cell count turned out to be 40.5%. Turning to `Nc1ncn([C@H]2C[C@H](O)[C@@H](CO)O2)c(=O)n1` [decitabine] + O=C(Nc1ccccc1)c1cc([N+](=O)[O-])ccc1Cl [GW9662] (first compound 0.5 µM, partner dose 10 µM), the cell count came to 71.5%. As for `Nc1ccn([C@@H]2O[C@H](CO)[C@@H](O)C2(F)F)c(=O)n1` [gemcitabine] + NC(=O)Nc1cc(-c2cccc(F)c2)sc1C(=O)N[C@H]1CCCNC1 [AZD7762] (first compound 0.002 µM, partner dose 0.1 µM), the cell count is 34.1%. Compound `Nc1nc(F)nc2c1ncn2[C@@H]1O[C@H](CO)[C@@H](O)[C@@H]1O` [fludarabine] + O=c1cc(-c2cccc3c2Sc2ccccc2S3)oc(N2CCOCC2)c1 [KU55933] (first compound 1 µM, partner dose 5 µM) registered a cell count of 104%. In turn, `CC(=O)O[C@@]12CO[C@@H]1C[C@H](O)[C@@]1(C)C(=O)[C@H](O)C3=C(C)[C@@H](OC(=O)[C@H](O)[C@@H](NC(=O)OC(C)(C)C)c4ccccc4)C[C@@](O)([C@@H](OC(=O)c4ccccc4)[C@H]21)C3(C)C` [Docetaxel] + CO[C@H]1C[C@@H]2CC[C@@H](C)[C@@](O)(O2)C(=O)C(=O)N2CCCC[C@H]2C(=O)O[C@H]([C@H](C)C[C@@H]2CC[C@@H](OCCO)[C@H](OC)C2)CC(=O)[C@H](C)/C=C(\C)[C@@H](O)[C@@H](OC)C(=O)[C@H](C)C[C@H](C)/C=C/C=C/C=C/1C [everolimus] (first compound 0.0005 µM, partner dose 0.1 µM) yielded a cell count of 33.8%.

The compound `CC(=O)O[C@@]12CO[C@@H]1C[C@H](O)[C@@]1(C)C(=O)[C@H](O)C3=C(C)[C@@H](OC(=O)[C@H](O)[C@@H](NC(=O)OC(C)(C)C)c4ccccc4)C[C@@](O)([C@@H](OC(=O)c4ccccc4)[C@H]21)C3(C)C` [Docetaxel] + O=C(CCCCCCC(=O)Nc1ccccc1)NO [vorinostat] (first compound 0.0005 µM, partner dose 0.4 µM) had a cell count of 49.3%. For `Nc1ccn([C@@H]2O[C@H](CO)[C@@H](O)C2(F)F)c(=O)n1` [gemcitabine] + c1cc(-c2cnn3cc(-c4ccc(OCCN5CCCCC5)cc4)cnc23)ccn1 [Dorsomorphin] (first compound 0.002 µM, partner dose 2 µM) the value was 65.4%.
